Assay results published in the supplement of paper PMC10126150.
Sequences with one replicate were seen in a single cluster, so their values are uncertain.

tested on: ATP; experiment: switch fluorescence ratio, 500 uM ATP over buffer (Cy3 cluster intensity, sum of 5 cycles each) (fold (ratio)); higher = stronger signal-on switching upon ATP binding; sequences stand for … in TCGTCGGCAGCGTCAGATGTGTATAAGAGACAGTTTTTTTTTTTTTTTTTTTTTTTTT…TC; conditions: aptamer strand: ATP DNA aptamer (quencher-CACCTGGGGGAGTATTGCGGAGGAAGG + anchor), 100 nM annealed; ATP concentration: 500 uM; one replicate
How it was run: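 For every switch-domain sequence, the fluorescence ratio is the mean of per-cluster values, each being summed target-cycle Cy3 intensity over summed buffer-cycle Cy3 intensity. Clusters outside 100-1000 RFU were excluded. On a modified Illumina MiSeq flow-cell, the Cy3-labelled switching-strand clusters were annealed to 100 nM quencher-labelled ATP aptamer, imaged in selection buffer and then after 15 min with 500 uM ATP at 22 °C. Five such cycles were run, with NaOH stripping and re-annealing between them.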
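Further: ATP exposure 15 min at 22 °C before imaging.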

Row | Sequence | switch fluorescence ratio
1 | ATTCTGTGAC | 1.04
2 | ATTCTGTTGT | 1.01
3 | ATTGAAATAC | 1.52
4 | ATTGAACGT | 0.867
5 | ATTGAATATG | 1.04
6 | ATTGAATTG | 0.974
7 | ATTGACACAC | 1.5
8 | ATTGACGGGA | 1.06
9 | ATTGACTGAA | 1.06
10 | ATTGAGTTTC | 1.04
11 | ATTGATACAG | 0.988
12 | ATTGATACGC | 1.1
13 | ATTGATTAC | 1.03
14 | ATTGCAACAG | 1.06
15 | ATTGCCCCTT | 1.19
16 | ATTGCCTAGG | 1.04
17 | ATTGCGATG | 1.04
18 | ATTGCTAGC | 0.939
19 | ATTGCTCCAG | 1.05
20 | ATTGCTTATC | 0.985
21 | ATTGGAAATT | 0.963
22 | ATTGGATTCT | 0.962
23 | ATTGGCACGA | 1.02
24 | ATTGGCCGCG | 0.966
25 | ATTGGCTTCC | 2.59
26 | ATTGGGCCTA | 1.01

Row | Sequence | switch fluorescence ratio
27 | ATTGGGTGCT | 1.04
28 | ATTGGTGCAC | 1.01
29 | ATTGTACTGC | 0.996
30 | ATTGTAGTGG | 1.02
31 | ATTGTATGAA | 0.981
32 | ATTGTCATAG | 0.983
33 | ATTGTCGGCG | 1.02
34 | ATTGTCTCCT | 1.03
35 | ATTGTTATCC | 0.989
36 | ATTGTTCCTT | 1.01
37 | ATTGTTGGCT | 0.977
38 | ATTGTTGGGT | 0.99
39 | ATTTAATGT | 1.01
40 | ATTTACAGT | 1.06
41 | ATTTAGCTTT | 0.977
42 | ATTTAGTGTC | 1.06
43 | ATTTATACAT | 1.02
44 | ATTTATCAC | 1.03
45 | ATTTATCAGG | 1.02
46 | ATTTCAGACA | 0.946
47 | ATTTCAGCGT | 1.01
48 | ATTTCATAGG | 1.03
49 | ATTTCCACCA | 0.986
50 | ATTTCCCACT | 1.02
51 | ATTTCGTACC | 1.05
52 | ATTTCTACG | 1.07

Row | Sequence | switch fluorescence ratio
53 | ATTTCTCGTC | 1.02
54 | ATTTCTGCTG | 0.916
55 | ATTTGAGTAC | 1.04
56 | ATTTGCTGGG | 0.975
57 | ATTTGCTTT | 0.919
58 | ATTTGCTTTG | 1
59 | ATTTGGAATA | 1.02
60 | ATTTGGCGAT | 1.03
61 | ATTTGGGTTG | 0.973
62 | ATTTGGTCAT | 1.12
63 | ATTTGGTTGC | 0.983
64 | ATTTGTAAAC | 1.01
65 | ATTTGTAAGG | 0.975
66 | ATTTGTAGCC | 1
67 | ATTTGTCCTG | 1.04
68 | ATTTGTCTTA | 0.958
69 | ATTTGTGGG | 0.97
70 | ATTTTAGCGC | 0.946
71 | ATTTTATTAA | 0.931
72 | ATTTTATTGA | 0.988
73 | ATTTTCCTAG | 1.01
74 | ATTTTCGCCT | 0.963
75 | ATTTTGCTCC | 0.992
76 | ATTTTGGACT | 1.04
77 | ATTTTGGAG | 1.02
78 | ATTTTGGATT | 0.993

Row | Sequence | switch fluorescence ratio
79 | ATTTTTAGGT | 1.01
80 | ATTTTTCACT | 1
81 | ATTTTTTAGC | 0.918
82 | CAAAAACGGC | 0.988
83 | CAAAAGAAGG | 0.974
84 | CAAAAGTTCC | 1.13
85 | CAAACGATTA | 1.06
86 | CAAACGCGGA | 1.31
87 | CAAACGTCAA | 3.53
88 | CAAACTACAG | 1.03
89 | CAAACTTCGG | 0.989
90 | CAAAGAGCAG | 0.976
91 | CAAAGCCAAT | 3.22
92 | CAAAGCTTTC | 1.72
93 | CAAAGGTGGG | 1.03
94 | CAAAGTAAGG | 1.04
95 | CAAAGTTAGC | 0.998
96 | CAAATACGGG | 1.03
97 | CAAATAGGTT | 0.986
98 | CAAATAGTAT | 0.997
99 | CAAATCAGTA | 0.936
100 | CAAATCGCTC | 1.09
101 | CAAATGAGTT | 1
102 | CAAATGGATA | 1.01
103 | CAAATGTAAA | 1
104 | CAAATTAAAT | 0.995

Row | Sequence | switch fluorescence ratio
105 | CAACAACTTT | 0.99
106 | CAACAGCTTA | 1.07
107 | CAACAGTGCC | 1.04
108 | CAACATATTC | 1
109 | CAACATTATA | 1.02
110 | CAACCCGGGT | 0.979
111 | CAACCGACCG | 1.64
112 | CAACCGTAT | 1.07
113 | CAACCGTGGG | 0.971
114 | CAACCTTAGG | 1.01
115 | CAACGAACAA | 1.15
116 | CAACGGGAGG | 1
117 | CAACGGGTCT | 0.985
118 | CAACGTCCAC | 1.45
119 | CAACTGAAAG | 1.01
120 | CAACTGCGTC | 1.06
121 | CAACTGTGAA | 1.02
122 | CAACTGTTCA | 1.02
123 | CAACTTAACG | 1.06
124 | CAACTTGTGG | 0.989
125 | CAAGACTTAA | 1.03
126 | CAAGAGTGCT | 0.994
127 | CAAGATCTT | 1.02
128 | CAAGCACAA | 1.24
129 | CAAGCAGCCA | 0.994
130 | CAAGCAGGAG | 1.19

Row | Sequence | switch fluorescence ratio
131 | CAAGCCGGAT | 1.05
132 | CAAGCCGTAT | 1.14
133 | CAAGCTCAGG | 1.03
134 | CAAGGAAC | 0.99
135 | CAAGGATATA | 1.01
136 | CAAGGCGGCG | 1
137 | CAAGGCTTAC | 1.77
138 | CAAGGTCGCC | 0.977
139 | CAAGGTGGGA | 0.989
140 | CAAGGTTATC | 0.977
141 | CAAGGTTTTA | 0.977
142 | CAAGTAACGC | 1.05
143 | CAAGTCCACT | 1.03
144 | CAAGTTCCCA | 1
145 | CAAGTTCCTG | 1.03
146 | CAAGTTTAAC | 1.02
147 | CAATAACGTG | 1.06
148 | CAATACCCGT | 1.05
149 | CAATAGACAG | 0.979
150 | CAATAGATAC | 1.28
151 | CAATAGGATC | 1.06
152 | CAATAGGGTA | 1.01
153 | CAATAGGTCT | 1.01
154 | CAATAGTACA | 1.02
155 | CAATATCTGT | 0.961
156 | CAATATTTCG | 1.02

Row | Sequence | switch fluorescence ratio
157 | CAATCAAGTC | 1.01
158 | CAATCATTAC | 1.13
159 | CAATCCGATG | 1.04
160 | CAATCGTTCG | 1.02
161 | CAATCTCGCT | 0.994
162 | CAATCTGCAG | 1.07
163 | CAATCTGTAG | 1.01
164 | CAATCTTGAG | 0.967
165 | CAATGAAGCT | 0.982
166 | CAATGAATCA | 1.02
167 | CAATGCAGTA | 1.1
168 | CAATGCTGGT | 0.972
169 | CAATGTACCC | 1.13
170 | CAATGTGCG | 1.01
171 | CAATGTGGCA | 1.03
172 | CAATGTTTA | 1.07
173 | CAATTAACGT | 1.06
174 | CAATTAGGAT | 0.932
175 | CAATTAGGT | 1.03
176 | CAATTATAG | 0.975
177 | CAATTCACGT | 1.06
178 | CAATTCGCAT | 1.52
179 | CAATTGACAG | 1.05
180 | CAATTGACGA | 1.02
181 | CAATTGACGC | 1.02
182 | CAATTGCGCG | 0.98

Row | Sequence | switch fluorescence ratio
183 | CAATTGGGGC | 1.01
184 | CAATTTGCA | 0.996
185 | CAATTTTAAC | 1.02
186 | CAATTTTGCG | 0.955
187 | CACAACAGCA | 1.02
188 | CACAAGGCAT | 1.75
189 | CACAAGGTAA | 1.02
190 | CACACAAACC | 1.14
191 | CACACCCGGG | 1.06
192 | CACACGGATT | 1.02
193 | CACAGAACGC | 1.09
194 | CACAGCCCCT | 1.01
195 | CACAGGCTTG | 0.979
196 | CACAGTAGCT | 1.09
197 | CACAGTAGGG | 1.03
198 | CACAGTTTCG | 1.02
199 | CACATAATGG | 0.981
200 | CACATGCATA | 1.09
201 | CACATTCACT | 1.12
